# Assay results published in publication PMC9917132, “Tenebrio molitor as a Simple and Cheap Preclinical Pharmacokinetic and Toxicity Model” (International Journal of Molecular Sciences, 2023).
# Columns and labels:
# [1] = test system: Mice; conditions: cited from earlier work
# [2] = Acute toxicity (LD50) in adult T. molitor Coleoptera (TMC) after injection in the hemocoel; conditions: Tenebrio molitor, in vivo, 2000 mg/kg
# Experimental: The literature was carefully studied to identify the starting dose of a panel of drugs; however, when no data were available, the protocol described in Figure 1 was adopted, using 1 TMC and starting from the dose of 200 mg/kg.
# The protocol depicted in Figure 2 has been adopted to determine LD50, starting from the opportune dose determined as described above. A panel of 20 drugs available on the market, including antivirals, antibiotics and the representative drugs for several pharmaceutical classes, was analyzed (Table 2).
# Figure 2 Flowchart for LD50 determination. Starting from the opportune initial dose, LD50 was determined by changing the dose based on results and increasing the number of […] for final determinations. GHS cat.: Globally Harmonized System category. The numbers on the circles represent the number of deaths in exemplars.
# TMC were randomly selected for toxicity assessment. TMC older than 3 days were discarded.
# Acute toxicity was determined following the Organization for Economic Cooperation and Development (OECD) guidelines for acute toxicity of chemicals. All the available information on the test substance was considered to select the toxic dose of test compounds. Data were collected considering LD50 already reported for humans, rats and mice or, when possible, insects (e.g., Galleria mellonella). The initial dose, expressed in mg/kg, was calculated as the lowest LD50 reported in the literature. When no data were found in the literature, the starting dose of 200 mg/kg was used and the range-finding study was conducted with 1 TMC, by adapting OECD guidelines (Figure 1). To perform LD50 calculation study, 5 TMC were injected with the selected dose, and mortality was recorded daily for 7 days. Each experiment included 1 control group treated with DMSO. […] If 1 or less TMC died, the experiment was performed with a higher dose. If 2 or 3 TMC died, the experiment was repeated by re-testing the initial dose with 10 TMC. […] The experiment continued until a toxic dose was determined.
# [3] = test system: Rats; conditions: cited from earlier work
# [4] = PK literature data; cited from earlier work
Compound,LD50 Mice ip [1],LD50 Mice iv [1],LD50 at 7 days [2],LD50 Rats ip [3],LD50 Rats iv [3],LD50 at 7 days ([2]; other: injection in the hemocoel),Vd [4]
CN1C(=O)CN=C(c2ccccc2)c2cc(Cl)ccc21 [Diazepam],37 mg/kg,25 mg/kg,50 mg/kg,46.5 mg/kg,32 mg/kg,–,–
CN(C)CCOC(c1ccccc1)c1ccccc1 [Diphenhydramine],56 mg/kg,–,50 mg/kg,–,42 mg/kg,–,–
NS(=O)(=O)c1cc(C(=O)O)c(NCc2ccco2)cc1Cl [Furosemide],–,308 mg/kg,–,800 mg/kg,800 mg/kg,300 mg/kg,0.07 to 0.2 L/kg
